Data published in PMC12700831, “Molecular basis for the activation of outer dynein arms in cilia” (Nature Structural & Molecular Biology, 2025).

Target: T1, recombinant human C20ORF194/DNAAF9 (human, UniProt Q5TEA3 1-1177)
T1 construct: human C20ORF194/DNAAF9, codon-optimized synthetic gene in pACEBac1; also called human Shulin; source: Sf9, purified (Strep-Trap, Superdex 200 gel filtration)
Experiment: SEC; Shulin or DNAAF9 with fourfold molar excess of Arl3 or ARL3 variants, 30 min on ice, 1 mM GDP or 1 mM GTP, Superdex 200 increase 3.2/300; coelution by SDS–PAGE
Conditions: both partners purified

T1 sequence (Q5TEA3 whole entry): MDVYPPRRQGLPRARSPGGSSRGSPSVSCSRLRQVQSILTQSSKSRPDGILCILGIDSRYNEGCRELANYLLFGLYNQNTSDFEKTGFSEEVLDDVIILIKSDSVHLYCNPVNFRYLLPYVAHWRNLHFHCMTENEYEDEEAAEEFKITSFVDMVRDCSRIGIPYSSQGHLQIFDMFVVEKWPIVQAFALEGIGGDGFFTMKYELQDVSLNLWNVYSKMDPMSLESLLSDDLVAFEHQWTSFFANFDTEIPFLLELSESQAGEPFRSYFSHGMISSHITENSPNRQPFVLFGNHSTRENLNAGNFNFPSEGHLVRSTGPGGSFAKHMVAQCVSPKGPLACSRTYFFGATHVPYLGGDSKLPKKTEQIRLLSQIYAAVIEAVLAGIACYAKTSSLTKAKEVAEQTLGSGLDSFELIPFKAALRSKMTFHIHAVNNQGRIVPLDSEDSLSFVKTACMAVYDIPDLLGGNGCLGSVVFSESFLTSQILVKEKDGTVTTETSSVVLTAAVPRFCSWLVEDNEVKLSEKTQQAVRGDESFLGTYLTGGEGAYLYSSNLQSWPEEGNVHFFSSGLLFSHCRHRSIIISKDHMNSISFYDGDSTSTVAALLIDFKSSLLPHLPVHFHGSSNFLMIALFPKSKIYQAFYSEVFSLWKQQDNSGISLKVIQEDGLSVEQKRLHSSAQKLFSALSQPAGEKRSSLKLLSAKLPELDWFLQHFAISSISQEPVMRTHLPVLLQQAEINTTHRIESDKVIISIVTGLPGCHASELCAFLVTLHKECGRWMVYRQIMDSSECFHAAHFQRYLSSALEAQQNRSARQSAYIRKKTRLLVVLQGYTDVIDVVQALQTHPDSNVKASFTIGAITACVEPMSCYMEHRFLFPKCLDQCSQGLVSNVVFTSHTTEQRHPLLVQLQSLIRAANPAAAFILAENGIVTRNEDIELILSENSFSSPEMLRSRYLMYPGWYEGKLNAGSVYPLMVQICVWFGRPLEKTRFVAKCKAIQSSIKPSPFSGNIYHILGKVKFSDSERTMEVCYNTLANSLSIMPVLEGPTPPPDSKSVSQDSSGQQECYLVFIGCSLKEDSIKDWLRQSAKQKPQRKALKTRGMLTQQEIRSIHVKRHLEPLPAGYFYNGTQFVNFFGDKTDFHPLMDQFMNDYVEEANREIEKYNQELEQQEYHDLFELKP

binding result: binds
B1: human ARL[…]L (His tag) (natural protein)
chain: not shown
notes: human ARL3, GTP-locked variant; also called GTP-locked ARL3; QL variant; source: bacteria (pET22b(+), periplasmic expression), purified (Ni-NTA, Superdex 200 gel filtration)
